Laboratory results: the supplement of paper PMC3334620
Whole data set: some 33,000 sequences, median “E-score (-0.5 to 0.5)” near -0.054, cut for the highest 2% near 0.39. Some of the results follow.

These sequences were tested against Ylr278c (UniProt Q05854) (assay: PBM E-score (8-mer binding enrichment) (E-score (-0.5 to 0.5)); higher = stronger / more preferred TF binding; most listed sequences are background and not binding sites). Conditions: protein concentration: 200 nM; construct: GST-DNA-binding domain.
Protocol: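 Universal 'all 10-mer' protein binding microarrays (Agilent AMADID 015681) probed with GST-tagged S. cerevisiae TFs (full-length or DBD) made by in vitro transcription/translation (PURExpress), about 100-200 nM. Bound TF was detected with fluorescent anti-GST. Each ungapped 8-mer (which stands for itself and its reverse complement) is scored by the PBM enrichment score (E-score), a modified Wilcoxon-Mann-Whitney statistic from -0.5 to +0.5, computed with the Universal PBM Analysis Suite. Scale: above 0.35 generally sequence-specific binding.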

Row | Sequence | PBM E-score
1 | ACAGGAGG | -0.167
2 | GCGACGGA | 0.313
3 | ATAGAGCC | -0.0581
4 | GGCAGGTA | 0.0246
5 | CCAAGGTA | -0.15
6 | AAAGACTC | -0.219
7 | ATATTAGA | -0.0388
8 | GTGTTAAA | -0.223
9 | CCATGCCG | 0.277
10 | ACCGGCTA | 0.199
11 | GCTTGACC | 0.0293
12 | GGAAGCGA | 0.0891
13 | AAGGATAA | -0.152
14 | AAAGGAGA | -0.135
15 | AGAAACGC | -0.00934
16 | ATGTCCGG | 0.468
17 | AGATGTTA | -0.216
18 | TGAATTCA | -0.237
19 | AAAAAGTT | -0.116
20 | GGACATCA | 0.214
21 | CAGATACG | 0.0708
22 | AAACGCCT | -0.0556

Row | Sequence | PBM E-score
23 | AGATATGA | -0.0053
24 | CCACGTCA | -0.236
25 | GATCGTGA | -0.0709
26 | CGCTCAGC | -0.0244
27 | CGAGTGAA | -0.0383
28 | GAAATGTA | 0.144
29 | CGTCTGCA | -0.24
30 | CTCGAAGA | -0.135
31 | ATCTAGAC | -0.311
32 | GTCTGAGA | -0.151
33 | GACTTCCA | 0.0321
34 | CATCTCAA | -0.207
35 | AAATCTCA | -0.13
36 | TGACCGCA | 0.0189
37 | CAGAATAC | 0.0389
38 | CCCCGCAC | 0.245
39 | AATGTAAC | -0.0522
40 | AGCAAATC | 0.0215
41 | GGAGAGGA | -0.0154
42 | AGGGTCAC | -0.133
43 | CCAATCCG | 0.306
44 | GAGGGTTA | -0.181

Row | Sequence | PBM E-score
45 | TAAATGTA | -0.154
46 | GCCGACCC | 0.175
47 | ACTGTTGC | 0.0649
48 | GAGTCAAA | 0.0637
49 | AGCTAAGA | -0.127
50 | ACGTCATC | -0.104
51 | CATTCTCG | 0.0695
52 | CCATGGGC | 0.0313
53 | ATTGATAC | 0.0983
54 | CACATAAA | -0.0718
55 | GGTGTGAC | -0.172
56 | CAACACTC | 0.133
57 | CGCCCATA | 0.0865
58 | TAGTCAGA | -0.194
59 | GCCGTGTA | 0.0697
60 | CGTCGTAG | 0.00558
61 | CGAGCGAA | 0.0708
62 | TTGCCCAA | -0.125
63 | GTCGAGAC | -0.00117
64 | CCTTGACC | 0.0455
65 | GGCGAGAA | 0.15
66 | AGTCCGTG | 0.343

Row | Sequence | PBM E-score
67 | CTGAACTA | -0.121
68 | GAGGGTCC | 0.173
69 | AACTCATG | -0.174
70 | AATTGCAG | -0.0839
71 | ACGGCACG | -0.0262
72 | CGTATGTA | -0.0945
73 | TACTCACA | -0.248
74 | CATGATCC | 0.177
75 | GCGCCGAA | 0.302
76 | ACCCAGCC | -0.203
77 | GGCGGTCA | 0.253
78 | TAGTTAAA | -0.106
79 | CCTACCTA | -0.185
80 | AAAGCCGA | 0.357
81 | CAGAGCCC | -0.125
82 | CCGTGGGA | -0.055
83 | ATCCCGAG | 0.308
84 | ATTAGGCC | -0.102
85 | GAGGAATA | 0.184
86 | CATGTTAA | 0.0539
